± gives the standard deviation of the averaged measurements. Whole data set: some 33,000 sequences, median “E-score (dimensionless, -0.5 to 0.5)” near -0.049, cut for the highest 2% near 0.37. The list shows a part of the results.
Test system: T1, PmTbr T-box DNA-binding domain (GST fusion)
T1 sequence: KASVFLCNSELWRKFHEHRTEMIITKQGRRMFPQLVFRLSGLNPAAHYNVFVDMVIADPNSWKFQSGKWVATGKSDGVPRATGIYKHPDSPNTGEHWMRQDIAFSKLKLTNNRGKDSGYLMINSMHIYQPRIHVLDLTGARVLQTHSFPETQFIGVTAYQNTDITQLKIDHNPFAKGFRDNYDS
Test: PBM E-score of 8-mer (E-score (dimensionless, -0.5 to 0.5)); Tbr is Tbrain of the sea star Patiria miniata (Pm) or the sea urchin Strongylocentrotus purpuratus (Sp); higher = stronger binding preference; most listed sequences are background and not binding sites
Conditions: the construct has about 5 more residues each side
Procedure, shortened: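 Using the Universal PBM Analysis Suite, every ungapped 8-mer received an enrichment E-score averaged over duplicate arrays. Probe intensities came from double-stranded Universal Agilent oligonucleotide arrays incubated with 200 nM GST-fused Tbr T-box DNA-binding domain in PBS (pH 7.5). That protein was expressed in BL21 E. coli at 20 °C and purified by glutathione affinity chromatography.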

Row | Sequence | PBM E-score of 8-mer
1 | AATCTTCA | -0.068 ± 0.038
2 | AGGAAGCC | -0.165 ± 0.055
3 | CGACCCAC | -0.142 ± 0.055
4 | CAGCACTA | -0.175 ± 0.026
5 | GCTCCGAA | -0.0515 ± 0.015
6 | AGTATTCC | -0.0919 ± 0.053
7 | ACACTGAT | 0.165 ± 0.01
8 | GTGTTTGA | 0.235 ± 0.04
9 | AAGTATTG | -0.0327 ± 0.066
10 | CCCAGTTC | -0.152 ± 0.02
11 | GGAGCCGA | 0.051 ± 0.04
12 | TATTTGCA | 0.0407 ± 0.063
13 | TGTCCACA | 0.0836 ± 0.059
14 | CCTTCGCC | -0.0247 ± 0.041
15 | ATGCTCAC | 0.261 ± 0.0054
16 | ATTCGCGG | 0.244 ± 0.039
17 | ACATCTCC | 0.16 ± 0.025
18 | AAGTCTAA | -0.0669 ± 0.06
19 | CGGGTCGC | 0.119 ± 0.092
20 | TAGGTAAA | -0.141 ± 0.018
21 | TGTAGAAA | -0.0519 ± 0.1
22 | TCTCATAA | -0.0872 ± 0.047
23 | CAATTTAG | -0.0909 ± 0.094
24 | AGCTTCCC | -0.255 ± 0.0013
25 | AACCACTT | -0.052 ± 0.073

Row | Sequence | PBM E-score of 8-mer
26 | TGCTACAA | -0.0676 ± 0.076
27 | AACCTGGA | -0.141 ± 0.018
28 | CCCCTCAG | -0.191 ± 0.024
29 | CATACAAC | 0.0309 ± 0.045
30 | CCGGATTC | 0.0691 ± 0.16
31 | CTCCTACA | -0.0881 ± 0.027
32 | CTTAATGC | -0.0943 ± 0.11
33 | AAACGGTG | 0.0825 ± 0.011
34 | AAACAATT | -0.144 ± 0.029
35 | TACGCCCA | -0.0572 ± 0.091
36 | CGGTATAG | -0.114 ± 0.075
37 | CATCCTTC | -0.129 ± 0.076
38 | AGGGGAGC | -0.245 ± 0.032
39 | CACCGGAG | 0.00722 ± 0.051
40 | ACAAACCC | -0.194 ± 0.023
41 | AACAATAT | 0.00943 ± 0.055
42 | GGACGGCC | -0.189 ± 0.036
43 | CTAATTAA | -0.204 ± 0.065
44 | CAGCTCGA | 0.215 ± 0.019
45 | AGTCGCCG | -0.185 ± 0.035
46 | AAGTTGTC | 0.306 ± 0.0088
47 | GAAATCAC | 0.216 ± 0.01
48 | AAAATTCT | -0.1 ± 0.051
49 | CGGGGATC | -0.101 ± 0.043
50 | CTGTTCCC | -0.105 ± 0.1

Row | Sequence | PBM E-score of 8-mer
51 | AGTACACG | 0.0709 ± 0.011
52 | GACGCGTA | 0.0611 ± 0.022
53 | AGAAACGG | -0.165 ± 0.043
54 | GCTGATTA | -0.134 ± 0.039
55 | CATACTAC | -0.138 ± 0.0096
56 | GGTAACAA | 0.198 ± 0.056
57 | TACCTGCA | -0.174 ± 0.0055
58 | ACCCCGCT | 0.0858 ± 0.021
59 | CACTCGGA | 0.221 ± 0.015
60 | GAGAAAGC | 0.124 ± 0.06
61 | CCAGTTGA | -0.033 ± 0.037
62 | GATAGATC | -0.149 ± 0.037
63 | ACTCCTGA | -0.0453 ± 0.03
64 | AACCACGT | -0.316 ± 0.0044
65 | AATCATAA | 0.0409 ± 0.00098
66 | ATGTGGTC | -0.0251 ± 0.046
67 | TAAGTGCA | -0.0219 ± 0.073
68 | AGACACTA | 0.122 ± 0.044
69 | ACCCAAAT | -0.0101 ± 0.078
70 | GATAGGGA | -0.0469 ± 0.0089
71 | CCGCTACC | 0.153 ± 0.0095
72 | ATTCCAAG | -0.162 ± 0.051
73 | GGATGCTA | -0.0456 ± 0.0095
74 | ATGTCCCA | -0.204 ± 0.034
75 | GGAGCGAC | 0.0741 ± 0.015

Row | Sequence | PBM E-score of 8-mer
76 | CGTTGGGC | -0.272 ± 0.012
77 | GAACTCTA | -0.125 ± 0.0029
78 | AGGCTGAT | -0.0665 ± 0.0036
79 | GCTCCCCC | -0.26 ± 0.0098
80 | CCAAAAAA | -0.164 ± 0.083
81 | ACCACATA | 0.1315 ± 0.00076
82 | CATACGTA | -0.0885 ± 0.12
83 | GTGATCTA | -0.158 ± 0.015
84 | ACGCATCG | 0.118 ± 0.017
85 | GAACGTAC | -0.124 ± 0.0099
86 | ATAACTCA | -0.141 ± 0.0091
87 | CTCTTTAA | -0.27 ± 0.1
88 | TCAATTAA | -0.153 ± 0.077
89 | ACTCTTGA | -0.0845 ± 0.039
90 | GGGCATAA | -0.086 ± 0.035
91 | AGGGTAAG | -0.39 ± 0.028
92 | TAAACGCA | -0.11 ± 0.042
93 | AGATGAAT | -0.13 ± 0.058
94 | CCGGACTA | -0.113 ± 0.048
95 | TCCCACGA | 0.0489 ± 0.034
96 | GCTAGGTA | -0.154 ± 0.03
97 | AGGCTTAC | -0.163 ± 0.068
98 | AAAAACGT | 0.0206 ± 0.13
99 | CGGCATAC | -0.264 ± 0.019
100 | AAGTTGTG | 0.304 ± 0.0088

Row | Sequence | PBM E-score of 8-mer
101 | CACACGAC | 0.193 ± 0.025
102 | ATTACACG | 0.132 ± 0.12
103 | AACAAATA | -0.0317 ± 0.017
104 | GAACTTCA | -0.107 ± 0.026
105 | GGTGTCAA | 0.474 ± 0.0055
106 | AGTGCCGA | 0.156 ± 0.006
107 | GAGATAGC | 0.0313 ± 0.022
108 | CCCGCTAG | 0.00485 ± 0.03
109 | CAGAGTTC | -0.142 ± 0.008
110 | GCTAAAAC | 0.136 ± 0.011
111 | CGCCTCAC | 0.284 ± 0.037
112 | AGGACGGG | -0.308 ± 0.023
113 | TAGCGTAA | 0.134 ± 0.03
114 | CTAGCCTA | -0.021 ± 0.0087
115 | CCTGACGA | 0.105 ± 0.03
116 | CGCCCTTC | -0.000295 ± 0.035
117 | GGTACAAC | -0.133 ± 0.062
118 | CTCTGCGC | 0.0923 ± 0.0056
119 | AGTATTGC | -0.0321 ± 0.069
120 | CCAGGCAC | -0.1548 ± 0.0011
121 | CCCTCTCG | 0.0695 ± 0.027
122 | GAATTTCA | 0.0376 ± 0.0096
123 | CTCATTGC | -0.166 ± 0.087
124 | ATTAGATA | -0.188 ± 0.017
125 | AGCCTCCA | -0.096 ± 0.075

Row | Sequence | PBM E-score of 8-mer
126 | CAACCAAC | -0.0357 ± 0.0075
127 | TTCGGAAA | -0.149 ± 0.067
128 | GGGTCAAC | -0.0546 ± 0.098
129 | TGAGGGCA | -0.174 ± 0.021
130 | ACATCTAC | 0.167 ± 0.0066
131 | GGGTTCGA | -0.0834 ± 0.013
132 | TCCTACCA | -0.0535 ± 0.047
133 | ATTCCTTG | 0.126 ± 0.08
134 | GCAGTTAA | -0.0575 ± 0.045
135 | GAAGGAAA | -0.222 ± 0.05
136 | AATATCCC | -0.225 ± 0.011
137 | ATTAGGGC | -0.211 ± 0.025
138 | ATTGAACC | -0.179 ± 0.024
139 | CAAATGCG | -0.00842 ± 0.092
140 | AACGTCAG | -0.269 ± 0.053
141 | CATCGTTC | -0.129 ± 0.002
142 | AGCCGCAC | 0.0997 ± 0.087
143 | AACGCTGT | 0.0724 ± 0.032
144 | CGAAATAC | -0.0177 ± 0.016
145 | GTTGCGTA | 0.04 ± 0.086
146 | AAGCTATA | -0.139 ± 0.0046
147 | CAAGGGTC | -0.306 ± 0.022
148 | AGCAAATA | -0.0751 ± 0.011
149 | GGCTCTAA | 0.117 ± 0.085
150 | CAGCCATG | -0.1522 ± 0.00017

Row | Sequence | PBM E-score of 8-mer
151 | CGTAACGC | 0.0922 ± 0.064
152 | AGGTCAAG | -0.165 ± 0.0073
153 | CCCGCTTA | -0.202 ± 0.061
154 | GCAGCTCC | 0.0447 ± 0.0076
155 | TACTAGAA | -0.278 ± 0.0043
156 | GGTTAGAA | -0.267 ± 0.013
157 | ATCTCGTA | -0.141 ± 0.0085
158 | CGAGGTGC | 0.457 ± 0.01
159 | GCTAGCTA | 0.0889 ± 0.046
160 | AACGGAGT | 0.111 ± 0.085
161 | ACGTAAGC | 0.0674 ± 0.031
162 | ATGGAGAC | -0.159 ± 0.057
163 | ATTATATC | -0.158 ± 0.055
164 | CATGCACC | -0.11 ± 0.037
165 | CTCGAGTC | -0.257 ± 0.034
166 | GAGCCCAA | -0.147 ± 0.029
167 | GGTATGAA | -0.0417 ± 0.037
168 | AAGATTGC | 0.0269 ± 0.04
169 | CTGCGTGA | 0.121 ± 0.065
170 | GGGTTGCA | -0.0321 ± 0.041
171 | CGGTATTC | -0.156 ± 0.036
172 | CCAGATAG | -0.0965 ± 0.062

— the supplement of paper PMC4166925
